Assay results from the supplement of paper PMC4967469.
Lines with a small IC50 respond at low doses; where the fit passes the top or lowest dose, that dose stands as a limit. For AUC the same curve is integrated over the 256-fold range of doses and scaled to a fraction: 1 means no effect, lower means more sensitive. Any top dose called inferred is not printed in the source and was worked back from the curve model.

Tests used:
Assay in all cases: Viability of human cancer cell lines after 72 h of drug (GDSC screen)
[1] = compound: N=C(N)NC(=N)NCCc1ccccc1 [Phenformin]; conditions: top dose 4000 µM; top dose inferred
Procedure: (§1)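 Human cancer cell lines in 384-well plates, medium with 10% serum, drug for 72 h over a 256-fold dose range (nine 2-fold or five 4-fold steps up to the top dose). Adherent lines were fixed and stained with the nucleic acid dye Syto60, suspension lines read with resazurin; signal relative to control wells, capped at 0 and 100%. One two-parameter sigmoid per drug and line, fitted in a mixed model over all curves with the slope shared within a line.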

[2] = compound: O=c1cc(CN2CCOCC2)occ1OCCCCCSc1ccnc2cc(C(F)(F)F)ccc12 [EHT 1864]; conditions: top dose 10 µM; top dose inferred
Procedure: as §1

[3] = compound: COc1cc2ncnc(Nc3cc(Br)c(O)c(Br)c3)c2cc1OC [WHI-P97]; conditions: top dose 10.24 µM; top dose inferred
Procedure: as §1

[4] = compound: O=c1cc(N2CCOCC2)oc2c(-c3cccc4c3sc3ccccc34)cccc12 [NU-7441]; conditions: top dose 2 µM; top dose inferred
Procedure: as §1

[5] = compound: CNCc1ccc(-c2[nH]c3cc(F)cc4c3c2CCNC4=O)cc1 [AG-014699]; conditions: top dose 5 µM; top dose inferred
Procedure: as §1

[6] = compound: COc1cc2nccc(Oc3ccc(NC(=O)C4(C(=O)Nc5ccc(F)cc5)CC4)cc3)c2cc1OC [XL-184]; conditions: top dose 5.12 µM; top dose inferred
Procedure: as §1

[7] = compound: C=CC(=O)Nc1cc(NC(=O)c2ccc(C)c(NC(=O)c3ccno3)c2)cc(C(F)(F)F)c1 [QL-XI-92]; conditions: top dose 10.24 µM; top dose inferred
Procedure: as §1

[8] = compound: CCC1=C[C@@H]2CN(C1)Cc1c([nH]c3ccccc13)[C@@](C(=O)OC)(c1cc3c(cc1OC)N(C)[C@H]1[C@@](O)(C(=O)OC)[C@H](OC(C)=O)[C@]4(CC)C=CCN5CC[C@]31[C@@H]54)C2 [Vinorelbine]; conditions: top dose 0.064 µM; top dose inferred
Procedure: as §1

Cell Line	AUC [1]	IC50 [1] [µM]	AUC [2]	IC50 [2] [µM]	AUC [3]	IC50 [3] [µM]	AUC [4]	IC50 [4] [nM]	AUC [5]	IC50 [5] [µM]	AUC [6]	IC50 [6] [µM]	AUC [7]	IC50 [7] [µM]	AUC [8]	IC50 [8] [nM]
A427 (non-small cell lung carcinoma, adherent)	0.612	510	0.935	> 10	0.97	> 10.2	0.952	> 2000	0.935	> 5	0.944	> 5.12	0.961	> 10.2		
A549 (lung adenocarcinoma, adherent)			0.91	> 10			0.839	1620	0.958	> 5						
CHP-134 (neuroblastoma, suspension)	0.98	> 4000			0.961	> 10.2	0.882	> 2000			0.898	> 5.12	0.904	> 10.2		
HCC202 (breast, adherent)	0.383	105	0.956	> 10	0.927	> 10.2	0.95	> 2000	0.981	> 5	0.976	> 5.12				
HCC-827 (lung adenocarcinoma, adherent)			0.944	> 10	0.769	4.45	0.898	> 2000	0.954	> 5	0.962	> 5.12	0.973	> 10.2		
HCT-116 (large intestine, adherent)			0.957	> 10	0.982	> 10.2	0.987	> 2000	0.903	> 5			0.919	> 10.2		
HPAC (pancreas, adherent)	0.839	> 4000	0.903	> 10	0.971	> 10.2			0.927	> 5	0.698	1.46	0.848	> 10.2	0.69	17.1
HPAF-II (pancreas, adherent)	0.83	3660	0.907	> 10	0.934	> 10.2			0.94	> 5	0.864	> 5.12	0.955	> 10.2	0.692	16.5
HSC-3 (head and neck, adherent)	0.85	2380	0.979	> 10	0.974	> 10.2			0.99	> 5	0.986	> 5.12	0.971	> 10.2	0.577	6.27
HTC-C3 (thyroid, adherent)	0.96	> 4000	0.95	> 10	0.93	> 10.2			0.958	> 5	0.89	> 5.12	0.907	> 10.2	0.777	29.1
Hs940-T (melanoma, adherent)	0.972	> 4000	0.957	> 10	0.984	> 10.2			0.984	> 5	0.984	> 5.12	0.833	8.67	0.622	9.31
IGROV-1 (ovary, adherent)			0.962	> 10			0.902	> 2000	0.964	> 5						
IM-95 (stomach, adherent)	0.702	967	0.925	> 10	0.986	> 10.2			0.964	> 5	0.789	2.43	0.983	> 10.2	0.482	3.57
J82 (bladder, adherent)	0.862	3410	0.967	> 10	0.978	> 10.2			0.949	> 5	0.972	> 5.12	0.969	> 10.2	0.897	> 64
KOSC-2 (head and neck, adherent)	0.679	812	0.951	> 10	0.985	> 10.2			0.905	> 5	0.897	> 5.12	0.985	> 10.2	0.824	40.5
KYSE-180 (oesophagus, adherent)	0.382	121	0.988	> 10	0.938	> 10.2			0.98	> 5	0.833	3.09	0.98	> 10.2	0.531	4.83
KYSE-270 (oesophagus, adherent)	0.924	> 4000	0.991	> 10	0.889	8.65			0.951	> 5	0.959	> 5.12	0.983	> 10.2	0.437	2.77
LU-99A (large cell lung carcinoma, adherent)	0.633	579	0.981	> 10	0.966	> 10.2			0.878	> 5	0.963	> 5.12	0.987	> 10.2	0.595	7.28
MCF7 (breast, adherent)	0.37	108	0.884	> 10	0.986	> 10.2	0.973	> 2000	0.895	> 5			0.986	> 10.2		
ML-1 (thyroid, adherent)	0.968	> 4000	0.96	> 10	0.966	> 10.2			0.96	> 5	0.902	> 5.12	0.961	> 10.2	0.466	3.17
